Hit rate of the full screen: of about 220,000 compounds, about 2,300 (1%) were called active. The inconclusive results got no clear call from the source; some entries with a clear call stand among them for comparison. The call rests on the fitted dose curve; in most records, active means well fitted inhibition curve with a large enough effect; inconclusive means small, poorly fitted or top-dose-only effect, or effect the other way; inactive means no such curve, though single readings can be large or run the other way. Potencies of inconclusive entries are left out as doubtful fits.
target: Neuropeptide S receptor (Homo sapiens) (UniProt Q6W5P4); assay: qHTS Assay for Antagonists of the Neuropeptide S Receptor: cAMP Signal Transduction; conditions: CHO-NPSR cells, cAMP TR-FRET, antagonist mode; activity change, negative = inhibition: at 38.3 µM (top of the series) unless noted; further: nearly all actives have a fitted effect of over 50% in size
On the % scale 0 is the no-effect control and ±100 the full control effect; potency means the concentration at half of the fitted maximal effect; tags describe the fitted curve by direction and shape.

Chain of UniProt Q6W5P4 (Q6W5P4 whole entry, looked up): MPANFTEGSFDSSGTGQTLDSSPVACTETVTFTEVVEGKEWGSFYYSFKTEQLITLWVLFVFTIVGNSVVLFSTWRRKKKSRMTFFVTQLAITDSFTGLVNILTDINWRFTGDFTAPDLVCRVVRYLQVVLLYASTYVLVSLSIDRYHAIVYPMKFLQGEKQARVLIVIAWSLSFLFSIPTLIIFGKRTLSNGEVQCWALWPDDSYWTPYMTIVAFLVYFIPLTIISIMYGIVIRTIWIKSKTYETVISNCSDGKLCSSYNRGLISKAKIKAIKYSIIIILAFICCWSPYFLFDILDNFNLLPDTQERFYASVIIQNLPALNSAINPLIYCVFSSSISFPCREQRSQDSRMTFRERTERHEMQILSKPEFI

Row | Compound | Potency | activity change, negative = inhibition
1 | CC(C)(C)c1cc(C=C(C#N)C#N)cc(C(C)(C)C)c1O | inconclusive [inhibitor, partial curve] | –
2 | COCCNC(=O)c1c(NC(=O)c2ccco2)n(Cc2ccccc2)c2nc3ccccc3nc12 | inconclusive [inhibitor, single point] | –
3 | COc1ccc(C2NCc3ccc4c(c3-n3cccc32)OCO4)cc1O (stereo not drawn) | inconclusive [activator, single point] | –
4 | COCCNC(=O)c1c(N)n(CCC(C)C)c2nc3ccccc3nc12 | inconclusive [inhibitor, single point] | –
5 | COc1ccc(N2C(=O)C(Cl)=C(N3CCN(Cc4ccccc4)CC3)C2=O)cc1 | inconclusive [inhibitor, partial curve] | –
6 | CCOC(=O)c1c(C)n(COCCO)c2ccc(O)cc12 | – | inactive: 8.76% [at 7.67 µM]
7 | Cc1cccc2c(CCN)c[nH]c12 | inconclusive [inhibitor, single point] | –
8 | Cc1cc(OC(=O)CCNC(=O)OC(C)(C)C)c2c3c(c(=O)oc2c1)CCC3 | inconclusive [inhibitor, partial curve, poor fit] | –
9 | CCCCCn1c(=O)c(C(=O)NCc2ccncc2)c(O)c2ccccc21 | inconclusive [inhibitor, single point] | –
10 | Cc1ccc(OP(=O)(NC(C)c2ccccc2)Oc2ccc(C)cc2)cc1 (stereo not drawn) | inconclusive [activator, single point] | –
11 | O=Cc1c(C(=O)O)n(Cc2ccc(Cl)cc2)c2ccccc12 | – | inactive: -3.06%
12 | Cc1ccc(S(=O)(=O)Nc2cc(C(=O)N3CCC4(CC3)OCCO4)ccc2N2CCCCC2)cc1 | inconclusive [inhibitor, single point] | –
13 | C[C@]12C=CC(=O)C=C1CCC1C2=CC[C@]2(C)[C@@H](C(=O)CN3CCN(c4cc(N5CCCC5)nc(N5CCCC5)n4)CC3)CC[C@@H]12 (stereo partly drawn) | inconclusive [inhibitor, single point] | –
14 | Cc1ccc(/C=C2\C(=O)NC(=S)N(c3ccccc3F)C2=O)s1 | active: 5.01 µM | –
15 | NC(Cn1ccc(=O)[nH]c1=O)C(=O)O (stereo not drawn) | – | inactive: 2% [at 46.1 µM]
16 | CN1/C(=C\C=C\C2=[N+](C)c3ccc4ccccc4c3C2(C)C)C(C)(C)c2ccccc21 | active: 7.94 µM | –
17 | COc1cc2c(c(OC)c1OC)-c1ccc(OC)c(=O)cc1[C@@H](NC(C)=O)CC2 | inconclusive [activator, full curve] | –
18 | CCN1CCN(c2ccc(N)c(C)c2)CC1 | – | inactive: 17.4%
19 | O=C1C2CCCN2C(c2ccncc2)N1c1ccc(Cl)c(Cl)c1 (stereo not drawn) | – | inactive: -13.9% [at 46.1 µM]
20 | CCCNC(=O)c1c(N)n(Cc2ccco2)c2nc3ccccc3nc12 | inconclusive [inhibitor, single point] | –
21 | CCn1cc(C(=O)O)c(=O)c2cc(F)c(N3CCNCC3)cc21 | inconclusive [inhibitor, single point] | –
22 | CN1CCN(c2ccc(NC(=O)Oc3ccccc3)cc2)CC1 | inconclusive [inhibitor, single point] | –

Row | Compound | Potency | activity change, negative = inhibition
23 | O=C(c1ccco1)c1cn(Cc2ccccc2)c2ccccc12 | inconclusive [inhibitor, partial curve, poor fit] | –
24 | CCc1ccc(NP(=O)(Oc2ccccc2F)Oc2ccccc2F)cc1 | inconclusive [inhibitor, single point] | –
25 | CN(C)c1ccc(-[n+]2c(-c3ccccc3)cc(-c3ccccc3)cc2-c2ccccc2)cc1 | active: 12.6 µM | –
26 | CCCCCCCC(=O)NC(Oc1ccccc1[N+](=O)[O-])C(Cl)(Cl)Cl (stereo not drawn) | – | inactive: -2.45% [at 46.1 µM]
27 | O=C(c1cn(Cc2ccccc2)c2ccccc12)C1CC1 | active: 10 µM | –
28 | CCN1CCN(C(=O)Cc2c(C)n(C(=O)c3ccc(Cl)cc3)c3ccc(OC)cc23)CC1 | inconclusive [inhibitor, single point] | –
29 | CCC(C)NC(=O)c1c(N)n(CCCOC)c2nc3ccccc3nc12 (stereo not drawn) | inconclusive [inhibitor, single point] | –
30 | COc1ccc(C2=NCC(=O)N(CC(=O)NCc3ccco3)c3sc4c(c32)CCCC4)cc1 | inconclusive [inhibitor, single point] | –
31 | O=P(OC1CCCCC1)(OC1CCCCC1)C(O)c1c(Cl)cccc1Cl (stereo not drawn) | inconclusive [inhibitor, single point] | –
32 | Clc1ccc(COC(Cn2ccnc2)c2ccc(Cl)cc2Cl)cc1 (stereo not drawn) | inconclusive [inhibitor, single point] | –
33 | CCCCCCCCCOc1ccc2[nH]cc(CCN)c2c1 | inconclusive [inhibitor, single point] | –
34 | FC(F)(F)c1ccc2c(c1)nnn2C1CCN(Cc2nnnn2Cc2ccccc2)CC1 | inconclusive [inhibitor, partial curve] | –
35 | CC(=O)[C@H]1CCC2C3CC[C@H]4C[C@H](O)CC[C@]4(C)C3CC[C@@]21C (stereo partly drawn) | inconclusive [inhibitor, single point] | –
36 | c1ccc2c(CN3CCCCCCC3)c[nH]c2c1 | – | inactive: -0.498% [at 46.1 µM]
37 | CC(C)c1ccc(N=Cc2c(O)n(C3CC3)c(=S)[nH]c2=O)cc1 | inconclusive [inhibitor, single point] | –
38 | Cc1ccc(/C=C2/C(=O)NC(=O)N(CCc3ccc(F)cc3)C2=O)o1 | inconclusive [inhibitor, partial curve] | –
39 | CN1C[C@H](CNC(=O)OCc2ccccc2)C[C@@H]2c3cccc4c3c(cn4C)C[C@H]21 | inactive | –
40 | CCCCn1c(N)c(C(=O)NCCN2CCOCC2)c2nc3ccccc3nc21 | inconclusive [inhibitor, partial curve, poor fit] | –
41 | CCCCc1ncc(CN2CCCC(C(=O)c3ccc(SC)cc3)C2)[nH]1 (stereo not drawn) | inconclusive [inhibitor, single point] | –
42 | N#CC(C#N)=Cc1cc(O)c(O)c(O)c1 | inconclusive [inhibitor, partial curve] | –
43 | Cc1ccnc(-n2c(C)cc(/C=C3\C(=O)NC(=S)N(C)C3=O)c2C)c1 | inconclusive [inhibitor, single point] | –
